# Test results as given in PubChem BioAssay AID1508623 (National Center for Advancing Translational Sciences (NCATS), 2021).
# About 450 (0.94%) of roughly 48,000 compounds were called active. The inconclusive results got no clear call from the source; some entries with a clear call stand among them for comparison. Calls follow the shape of the dose curve; as a rule, active = well fitted inhibition curve with a large enough effect; inconclusive = small, poorly fitted or top-dose-only effect; inactive = no such curve, though single readings can be large or run the other way. Where the call is inconclusive, the potency comes from a doubtful curve fit.
# Experiment: Primary qHTS for Identification of Small Molecule Inhibitors of Huntingtin Promoter Activity; also: nearly all actives have a fitted effect of over 50% in size
# Settings: HEK293 HTT promoter firefly luciferase reporter (activity 0% = vehicle and -100% = no light), 24 h; series mostly up to 57.5 µM
# How it was run: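 HEK293 luciferase promoter-reporter cells (2,500/well) plated 24 h, then compounds added at up to 57.5 uM final for 24 h at 37 °C. Firefly luminescence by Dual-Glo, normalized to vehicle (0%) and zero RLU (-100%).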
# Potency is read from the fitted curve at half-maximal effect; tags tell the direction and shape of the fitted curve.
row,Structure (SMILES),Potency
1,Cc1c(C(=O)N2CCCC2)oc2c1-c1nn(CC(=O)NCc3ccccc3Br)cc1CC2,"inconclusive: 28.2 µM [inhibitor, single point]"
2,O=C(CN1C(=O)COc2ccc(S(=O)(=O)N3CCCCCC3)cc21)Nc1cccc(Cl)c1,"inconclusive: 25.1 µM [inhibitor, single point]"
3,Cc1cc(=O)n(C(C)C(=O)N2CCCc3ccccc32)c2c1c(C)nn2-c1ccccc1 (stereo unspecified),"inconclusive: 17.8 µM [inhibitor, partial curve, poor fit]"
4,CC(=O)N1CCc2c(sc3nc(SCC(C)C)n(-c4ccc(C)c(Cl)c4)c(=O)c23)C1,"inconclusive: 39.8 µM [inhibitor, single point]"
5,COc1cc(-c2nc(SCC(=O)Nc3ccc(C)cc3)c(-c3ccc(F)cc3)[nH]2)cc(OC)c1OC,"inconclusive: 31.6 µM [inhibitor, single point]"
6,C#CC(C)(CC)NC(=O)Cn1nnc(-c2ccc(OCc3ccccc3C)cc2)n1 (stereo unspecified),inactive
7,COc1ccccc1N1CCN(C(=O)c2cnn(-c3cccc(Cl)c3)c2C2CCN(C(=O)OC(C)(C)C)CC2)CC1,"inconclusive: 20 µM [inhibitor, single point]"
8,CCc1ccccc1NC(=O)c1cc(S(=O)(=O)N2CCc3ccccc32)ccc1F,"inconclusive: 28.2 µM [inhibitor, partial curve, poor fit]"
9,CCOc1ccc(CCNC(=O)CN2C(=O)COc3ccc(S(=O)(=O)N4CCCCCC4)cc32)cc1,"inconclusive: 39.8 µM [inhibitor, single point]"
10,c1ccc(CN(CC2=NCCN2)c2ccccc2)cc1,inactive
11,N#Cc1c(-n2ncnc2-c2cccc(Br)c2)sc2c1CCCCC2,"inconclusive: 3.55 µM [inhibitor, single point]"
12,O=S(=O)(Nc1cc(F)ccc1F)c1ccc2[nH]c3c(c2c1)CCCCC3,"inconclusive: 39.8 µM [inhibitor, single point]"
13,CC(C)(C)c1ccc(Oc2ccc(NC(=O)CCC(=O)OCC(=O)c3ccccc3)cc2)cc1,"inconclusive: 20 µM [inhibitor, partial curve, poor fit]"
14,Cc1ccc(Cl)cc1N1CCN(C(=O)CCCn2c(=O)[nH]c3ccc(Br)cc3c2=O)CC1,"inconclusive: 25.1 µM [inhibitor, single point]"
15,CC(C)Oc1cccc(C2CC(=O)Nc3cc4c(cc32)OCO4)c1 (stereo unspecified),"inconclusive: 8.91 µM [inhibitor, partial curve]"
16,O=C(NCCS(=O)(=O)N1CCN(c2ccc(F)cc2)CC1)c1cccc(C(F)(F)F)c1,"inconclusive: 39.8 µM [inhibitor, single point]"
17,O=C(CCn1ccc2cc(S(=O)(=O)N3CCCC3)ccc21)NCc1cccc(Cl)c1,"inconclusive: 39.8 µM [inhibitor, partial curve, poor fit]"
18,Cc1ccc(NC(=O)c2ccc(CNS(=O)(=O)c3ccc4c(c3)C(C)(C)C(=O)N4C)cc2)cc1C,"inconclusive: 28.2 µM [inhibitor, partial curve]"

row,Structure (SMILES),Potency
1,COc1cc(CCNC(=O)c2ccc3c(c2)c(C)c(C)n3Cc2cccc(C)c2)cc(OC)c1OC,"inconclusive: 22.4 µM [inhibitor, single point]"
2,COc1ccccc1NC(=O)C1CCN(S(=O)(=O)c2ccc3[nH]c4c(c3c2)CCCCC4)CC1,"inconclusive: 35.5 µM [inhibitor, partial curve, poor fit]"
3,COCCCN1C(=O)c2[nH]nc(-c3ccccc3O)c2C1c1ccc(OCc2ccccc2)cc1 (stereo unspecified),"inconclusive: 31.6 µM [inhibitor, single point]"
4,CCc1c(C)sc2c1CCN(C(=O)Nc1cc(C)cc(C)c1)C2c1ccccc1 (stereo unspecified),"inconclusive: 12.6 µM [inhibitor, partial curve]"
5,CCc1ccc(S(=O)(=O)Nc2ccc3[nH]c(=O)sc3c2)cc1,"inconclusive: 20 µM [inhibitor, partial curve, poor fit]"
6,Cc1cccc(NC(=O)c2sc3nc4c(cc3c2N)CN(C(C)C)CC4)c1,"inconclusive: 14.1 µM [inhibitor, partial curve, poor fit]"
7,CCC1CCCCN1C(=O)CSc1nc(-c2ccc(OC)c(OC)c2)cc(C(F)(F)F)n1 (stereo unspecified),"inconclusive: 28.2 µM [inhibitor, partial curve, poor fit]"
8,CC1=C(C(=O)OC2CCCCCC2)C(c2cccc(F)c2F)CC(=O)N1 (stereo unspecified),"inconclusive: 28.2 µM [inhibitor, partial curve]"
9,CCOC(=O)c1cc2c(=O)n3ccccc3nc2n(Cc2ccco2)c1=NC(=O)c1cccc(F)c1,"inconclusive: 31.6 µM [inhibitor, partial curve, poor fit]"
10,Cc1nc2cc(C(=O)NC3CCCCCC3)ccc2n1-c1ccc(Br)cc1,"inconclusive: 39.8 µM [inhibitor, single point]"
11,O=C(Nc1ccccc1O)c1cc(S(=O)(=O)N2CCCC2)ccc1Cl,"inconclusive: 31.6 µM [inhibitor, partial curve, poor fit]"
12,Cc1ccc2nc(-c3ccc(NC(=O)c4ccccc4S(C)(=O)=O)cc3)sc2c1,inactive
13,COc1ccc(-c2nc(C)c(CCNC(=O)c3c(F)cccc3F)s2)cc1,inactive
14,Cc1c(/C=C(\C#N)C(=O)Nc2cccc(Cl)c2)c2ccccc2n1Cc1ccccc1,"inconclusive: 11.2 µM [inhibitor, partial curve]"
15,Cc1ccc(NS(=O)(=O)c2ccc3c(c2)[C@H]2C=CC[C@H]2[C@@H](c2ccc(F)cc2)N3)cc1C,inactive
16,C[C@@H]1CN(Cc2ccc(F)cc2)[C@@H](C)CN1C(=O)c1cc2c(C(=O)C(=O)N(C)C)cn(C)c2cc1Cl,"inconclusive: 30.6 µM [inhibitor, partial curve, poor fit]"
17,Cc1ccc(NC(=O)CSc2nc3ccc(NC(=O)COc4ccc(C)cc4)cc3s2)cc1,inactive
18,Cc1ccc(SCc2nc(-c3ccc(C(=O)Nc4cc(C)ccc4C)cc3)oc2C)cc1,"inconclusive: 10 µM [inhibitor, partial curve]"
